Over roughly 33,000 sequences, “E-score (-0.5 to 0.5)” has its median near -0.04; the highest 2% begin near 0.36. The list shows a part of the results.
The sequences below were run against T1, Hmlalpha2 (UniProt P0CY09) (assay: PBM E-score (8-mer binding enrichment) (E-score (-0.5 to 0.5)); higher = stronger / more preferred TF binding; most listed sequences are background and not binding sites). Conditions: protein concentration: 200 nM; construct: GST-full length.
T1 sequence: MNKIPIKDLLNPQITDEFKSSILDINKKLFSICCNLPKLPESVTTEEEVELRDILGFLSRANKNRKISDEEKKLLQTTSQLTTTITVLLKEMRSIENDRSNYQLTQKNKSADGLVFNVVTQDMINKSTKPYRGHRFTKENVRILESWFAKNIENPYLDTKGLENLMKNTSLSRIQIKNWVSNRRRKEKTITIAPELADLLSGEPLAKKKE
Outline: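 E-scores (a modified Wilcoxon-Mann-Whitney statistic) were assigned by the Universal PBM Analysis Suite to every ungapped eight-base word pooled with its reverse complement. The input came from universal all-10-mer Agilent arrays made double-stranded by primer extension and probed with GST-tagged yeast transcription factors at about 100-200 nM. Fluorescent anti-GST detected bound protein, and masliner normalised the scans.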

Sequence | PBM E-score
AGACCTGA | -0.155
CACGTCCA | 0.0842
GAACACAA | 0.319
ATCGCGCA | -0.0535
AATATTAG | 0.0923
GCCTCTCC | -0.248
GTCATCAC | -0.196
ATGCTGAA | -0.0203
AAGCCATC | 0.0432
ATCCCCTG | -0.262
ACTACAGA | 0.119
ACTGCTTG | -0.00682
TGATATAA | 0.0539
GAGGGAGC | -0.252
CCGGCGAG | -0.287
AGGTTTAA | 0.0644
AAAACGAG | 0.0153
CGTCAGTA | -0.115
ATACTCCC | -0.078
AAGTAGTA | 0.164
ACCAAGAA | 0.0903
CGCGAATC | -0.00176

Sequence | PBM E-score
AGGATGAG | -0.105
ATTTAGCA | 0.191
TAGCAGAA | -0.00976
TTCGAAAA | 0.156
ACGTGGAA | 0.171
CCTCTGGC | -0.286
AGGGAGAC | -0.178
GTTGCCCA | -0.108
AGCTTGTG | 0.11
GTGCTACA | 0.106
CTTGGCCC | -0.435
CATCTGCA | 0.0396
GGATCCCC | -0.428
GTAATCCA | 0.29
CCGTTCAA | -0.0425
AACGGAAG | -0.0123
AGAATCAA | -0.034
ACTCCATG | -0.0768
CCGAAACC | -0.276
CACGCTAG | 0.00579
GGGCTAAC | -0.101
AACTCATC | 0.0672

Sequence | PBM E-score
CGGCGTGC | -0.18
GCAGAGCC | -0.279
CTATTGCC | -0.27
AACACTGA | 0.141
AAGCGGCG | 0.00275
GAGTGGGC | -0.149
AATTCTGC | -0.061
CACAACCA | 0.136
TACATCAA | 0.333
AGATTTGG | -0.155
CCGACTCG | -0.274
CACTTCGC | -0.0471
GCCTGTAC | 0.101
CGACGAGA | -0.103
CCGGCTCG | -0.166
CATGAAAA | 0.221
GGGAACCC | -0.18
AAGTATCC | -0.197
AACTGTAG | -0.0347
CGGACACG | -0.0185
AAATACAA | 0.347
CGGGGGTC | -0.191

Sequence | PBM E-score
GCCAGCGA | -0.134
AATAAGTC | 0.047
AGACCACT | -0.00203
ACACTAGC | 0.083
AACTTATT | 0.151
AACGGTTA | -0.0648
CTATGTTC | 0.252
AACAGAGA | -0.0298
ATGGGGCC | -0.282
AATAGTAT | 0.164
CAATGAAG | 0.083
CCATCAAC | 0.157
TAACCTTA | -0.0868
GGTGGTGA | -0.192
CGTGTTCA | 0.369
AATATACA | 0.34
ATTTAAAC | 0.262
GGCTGGAC | -0.303
CTCCTTAA | -0.144
AGTCACTG | -0.0556
ATATGTCG | 0.17
ACGAACTC | 0.126

Sequence | PBM E-score
ACAGTGCT | 0.018
ATCTCAAT | -0.0377
CAGGACGG | -0.035
ACGCTAAT | -0.0633
CTGTATTC | 0.255
GCTCAAGA | -0.289
GGTGTGTA | 0.423
CCGATGAG | -0.178
CCGAATCC | -0.0238
CCATTGCC | -0.198
CGCTCGCC | -0.146
AGTCTCCA | -0.0265
CTCCGCGA | -0.142
CTCTTGCA | -0.119
TAATGGCA | 0.0593
ACATCCTC | 0.084
ACCTTGAC | -0.00098
ATCTCACC | -0.126
ACCATGAT | -0.0585
GGGTAGAC | -0.301
CGGCCAAG | -0.148

From the supplement of paper PMC3334620
